Common to all, as to assay: microbe, parasite or virus in culture
One experiment has as its system P. falciparum W2. The conditions noted are these: Plasmodium falciparum, W2, 72 h, read-out: SYBR Green W2 IC50.
Another experiment concerns P. falciparum C235. The conditions noted are these: Plasmodium falciparum, 72 h, read-out: SYBR Green C235 IC50.
The test system of a further experiment is P. falciparum D6. The following applies: Plasmodium falciparum, D6, 72 h, read-out: SYBR Green D6 IC50.

By IC50 is commonly meant the concentration needed to halve the response being measured.

For the compound `Oc1ccc(-c2cncn2CCc2c(Cl)cccc2Cl)cc1` [HGN0098], the figures for the IC50 with P. falciparum W2, in the experiment with P. falciparum C235 and in the experiment with P. falciparum D6 were 8.38 µM, 14.4 µM and 10.2 µM, respectively.
For `NC(=O)c1c[nH]nc1NC(=O)c1c[nH]c2ncccc12` [HGN-0002] the same measures were over 40 µM, over 40 µM and over 40 µM.
For the compound `NC(=O)c1c[nH]nc1NC(=O)c1cncs1` [HGN-0004], the IC50 with P. falciparum W2, with P. falciparum C235 and with P. falciparum D6 was over 40 µM each time.
`Nc1ccn([C@@H]2O[C@H](CNC(=O)c3ccncc3)[C@@H](O)[C@H]2O)c(=O)n1` [HGN-0005]: the IC50 in the experiment on P. falciparum W2, in the experiment with P. falciparum C235 and in the experiment with P. falciparum D6 was over 40 µM throughout.
On to `NC(=O)c1c[nH]nc1NC(=O)Cc1cn2ccsc2n1` [HGN-0009], for which the IC50 in the experiment on P. falciparum W2, with P. falciparum C235 and with P. falciparum D6 was over 40 µM in each case.
Regarding `NC(=O)c1c[nH]nc1NC(=O)c1cnc2sccn12` [HGN-0010], the IC50 with P. falciparum W2, with P. falciparum C235 and in the experiment on P. falciparum D6 was over 40 µM in each case.
As for `O=C([O-])c1cnc(Nc2ccc(-c3ccncc3)cc2)nc1[O-].[Na+].[Na+]` [HGN-0013], the IC50 in the experiment with P. falciparum W2, in the experiment with P. falciparum C235 and in the experiment on P. falciparum D6 was over 40 µM in each case.
In the case of `O=C([O-])c1cnc(Nc2ccc(Br)cc2)nc1[O-].[Na+].[Na+]` [HGN-0014], the IC50 with P. falciparum W2, in the experiment with P. falciparum C235 and with P. falciparum D6 was over 40 µM in each case.
As for `CCOC(=O)c1cnc(Nc2ccc(-c3ccncc3)cc2)[nH]c1=O` [HGN-0015], the IC50 with P. falciparum W2, in the experiment on P. falciparum C235 and in the experiment on P. falciparum D6 was over 40 µM throughout.
As for `CCOC(=O)c1cnc(NCC2CCCO2)[nH]c1=O` (stereo not drawn) [HGN-0017, ethyl 6-oxo-2-(((tetrahydrofuran-2-yl)methyl)amino)-1,6-dihydropyrimidine-5-carboxylate], the IC50 in the experiment with P. falciparum W2, in the experiment on P. falciparum C235 and in the experiment on P. falciparum D6 was over 40 µM each time.
As for `CC(C)n1cncc1-c1ccc(O)cc1` [HGN-0018], the IC50 in the experiment with P. falciparum W2, in the experiment on P. falciparum C235 and in the experiment with P. falciparum D6 was over 40 µM throughout.
`Oc1ccc(-c2cncn2Cc2ccco2)cc1` [HGN-0019]: the IC50 was found to be 13.6 µM in the experiment with P. falciparum W2, 13.3 µM with P. falciparum C235 and 11.3 µM in the experiment on P. falciparum D6.
As for `Oc1ccc(-c2cncn2CCc2c[nH]c3ccccc23)cc1` [HGN-0020], the values for the IC50 in the experiment on P. falciparum W2, in the experiment with P. falciparum C235 and with P. falciparum D6 were 5.6 µM, 7.2 µM and 4.2 µM, respectively.
Regarding `Oc1ccc(-c2cncn2Cc2ccccc2)cc1` [HGN-0021], the IC50 in the experiment with P. falciparum W2 stood at 6 µM; in the experiment on P. falciparum C235, 7.7 µM; in the experiment on P. falciparum D6 it was 6 µM.
Take `Oc1ccc(-c2cncn2CCc2ccccc2)cc1` [HGN-0022]: the half-maximal inhibitory concentration (IC50) in the experiment on P. falciparum W2, with P. falciparum C235 and with P. falciparum D6 was over 40 µM each time.
For the compound `O=C([O-])c1cnc(NCCc2ccc(Cl)cc2)nc1[O-].[Na+].[Na+]` [HGN-0028], the IC50 in the experiment with P. falciparum W2, in the experiment on P. falciparum C235 and in the experiment on P. falciparum D6 was over 40 µM throughout.
With `Oc1ccc(-n2ccnc2)cc1` [HGN-0029], the IC50 in the experiment on P. falciparum W2, in the experiment on P. falciparum C235 and in the experiment on P. falciparum D6 was over 40 µM throughout.
For the compound `Cn1cncc1C(O)c1ccccc1` (stereo not drawn) [HGN-0031], the IC50 in the experiment on P. falciparum W2, in the experiment on P. falciparum C235 and in the experiment with P. falciparum D6 was over 40 µM each time.
`CCOC(=O)c1cnc(Nc2ccc(-c3ccccc3)cc2)[nH]c1=O` [HGN-0033, ethyl 2-((1,1′-biphenyl)-4-ylamino)-6-oxo-1,6-dihydropyrimidine-5-carboxylate]: the IC50 in the experiment with P. falciparum W2, in the experiment on P. falciparum C235 and in the experiment on P. falciparum D6 was over 40 µM each time.
As to `CCOC(=O)c1cnc(Nc2ccc(N3CCCCC3)cc2)[nH]c1=O` [HGN-0034, ethyl 6-oxo-2-((4-(piperidin-1-yl)phenyl)amino)-1,6-dihydropyrimidine-5-carboxylate], the IC50 in the experiment with P. falciparum W2, in the experiment with P. falciparum C235 and in the experiment with P. falciparum D6 was over 40 µM in each case.
For `CCOC(=O)c1cnc(Nc2ccc(N3CCOCC3)cc2)[nH]c1=O` [HGN-0037], the IC50 in the experiment on P. falciparum W2, with P. falciparum C235 and in the experiment with P. falciparum D6 was over 40 µM each time.
As to `CCOC(=O)c1cnc(NCCc2ccc(Cl)cc2)[nH]c1=O` [HGN-0038, Ethyl 2-((4-chlorophenethyl)amino)-6-oxo-1,6-dihydropyrimidine-5-carboxylate], the IC50 with P. falciparum W2, in the experiment with P. falciparum C235 and with P. falciparum D6 was over 40 µM each time.
Consider `CCOC(=O)c1cnc(Nc2cccc(-c3ccccc3)c2)[nH]c1=O` [HGN-0039], for which the IC50 with P. falciparum W2, in the experiment on P. falciparum C235 and with P. falciparum D6 was over 40 µM each time.
Turning to `CCOC(=O)c1cnc(Nc2ccc3cn[nH]c3c2)[nH]c1=O` [HGN-0040, Ethyl 2-((1H-indazol-6-yl)amino)-6-oxo-1,6-dihydropyrimidine-5-carboxylate], the IC50 with P. falciparum W2, in the experiment on P. falciparum C235 and with P. falciparum D6 was over 40 µM throughout.
On to `CCOC(=O)c1cnc(Nc2ccc(CC(=O)O)cc2)[nH]c1=O` [HGN-0041, 2-(4-((5-(ethoxycaronyl)-6-oxo-1,6-dihydropyrimidin-2-yl)amino)phenyl)acetic acid], for which the IC50 in the experiment on P. falciparum W2, in the experiment on P. falciparum C235 and in the experiment with P. falciparum D6 was over 40 µM each time.
As to `CCOC(=O)c1cnc(Nc2ccc3[nH]ncc3c2)[nH]c1=O` [HGN-0042, Ethyl 2-((1H-indazol-5-yl)amino)-6-oxo-1,6-dihydropyrimidine-5-carboxylate], the IC50 with P. falciparum W2, in the experiment with P. falciparum C235 and in the experiment on P. falciparum D6 was over 40 µM throughout.
`O=C([O-])c1cnc(Nc2cccc(-c3ccccc3)c2)nc1[O-].[Na+].[Na+]` [HGN-0044, Sodium 2-([1,1′-biphenyl]-3-ylamino)-4-oxidopyrimidine-5-carboxylate]: the IC50 with P. falciparum W2, in the experiment on P. falciparum C235 and in the experiment with P. falciparum D6 was over 40 µM in each case.
`O=C([O-])c1cnc(Nc2ccc3cn[nH]c3c2)nc1[O-].[Na+].[Na+]` [HGN-0045, Sodium 2-((1H-indazol-6-yl)amino)-4-oxoidopyrimidine-5-carboxylate]: the IC50 in the experiment with P. falciparum W2, with P. falciparum C235 and in the experiment on P. falciparum D6 was over 20 µM in each case.
With `CCOC(=O)c1cnc(NCc2ccco2)[nH]c1=O` [HGN-0047, Ethyl 2-((furan-2-ylmethyl)amino)-6-oxo-1,6-diydropyrimidine-5-carboxylate], the IC50 in the experiment with P. falciparum W2, in the experiment on P. falciparum C235 and with P. falciparum D6 was over 40 µM each time.
`Oc1ccc(CCn2cncc2-c2ccc(O)cc2)cc1` [HGN-0048]: the IC50 in the experiment with P. falciparum W2, in the experiment with P. falciparum C235 and with P. falciparum D6 was over 40 µM throughout.
For `O=C([O-])c1cnc(NCc2ccco2)nc1[O-].[Na+].[Na+]` [HGN-0049], the IC50 in the experiment with P. falciparum W2 amounted to 0.95 µM; in the experiment with P. falciparum C235, 0.74 µM; with P. falciparum D6 it was 0.55 µM.
For the compound `Oc1ccc(-c2cncn2CCc2ccc(Cl)cc2)cc1` [HGN-0051], the IC50 in the experiment on P. falciparum W2 is 0.59 µM; in the experiment on P. falciparum C235, 3.4 µM; in the experiment with P. falciparum D6 it was 1.7 µM.
Regarding `OC(Cn1cnc(-c2ccccc2)c1-c1ccccc1)c1ccccc1` (stereo not drawn) [HGN-0060], the IC50 with P. falciparum W2 was 3.1 µM; with P. falciparum C235, 2.7 µM; in the experiment on P. falciparum D6, 1.6 µM.
In the case of `Cn1ccnc1C(O)Cc1ccccc1` (stereo not drawn) [HGN-0061], the IC50 in the experiment with P. falciparum W2 was found to be 6.4 µM; in the experiment on P. falciparum C235, 8.3 µM; with P. falciparum D6, 6.1 µM.
With `CC(c1ccccc1)C(O)c1nccn1-c1ccccc1` (stereo not drawn) [HGN-0062], the IC50 with P. falciparum W2 amounted to 7.3 µM; in the experiment with P. falciparum C235 it was 8.3 µM; with P. falciparum D6 it was 3.8 µM.
Regarding `OC(Cn1ccnc1-c1ccccc1)c1ccccc1` (stereo not drawn) [HGN-0063], the IC50 with P. falciparum W2, in the experiment on P. falciparum C235 and in the experiment on P. falciparum D6 was over 40 µM throughout.
On to `Oc1ccc(-c2cncn2Cc2cccc(Cl)c2)cc1` [HGN-0090], for which the IC50 was found to be 3.94 µM in the experiment with P. falciparum W2, 6.15 µM with P. falciparum C235 and 5.8 µM in the experiment on P. falciparum D6.
In the case of `Oc1ccc(-c2cncn2Cc2ccccc2Cl)cc1` [HGN-0091], the results for the IC50 with P. falciparum W2, with P. falciparum C235 and in the experiment on P. falciparum D6 were 3.53 µM, 4.87 µM and 3.18 µM, respectively.
On to `Oc1ccc(-c2cncn2Cc2ccc(F)cc2)cc1` [HGN-0093], for which the IC50 with P. falciparum W2 was 3.36 µM; in the experiment on P. falciparum C235, 6.34 µM; in the experiment with P. falciparum D6 it was 5.83 µM.
For `Oc1ccc(-c2cncn2Cc2ccc(Cl)cc2)cc1` [HGN-0094] the same measures were 6.22 µM, 9.12 µM and 8.88 µM.
In the case of `Oc1ccc(-c2cncn2CCc2ccc(F)cc2)cc1` [HGN-0095], the IC50 in the experiment on P. falciparum W2 was determined as 4.05 µM; in the experiment with P. falciparum C235, 6.59 µM; in the experiment on P. falciparum D6 it was 6.1 µM.
As for `Oc1ccc(-c2cncn2CCc2ccccc2Cl)cc1` [HGN-0096], the half-maximal inhibitory concentration (IC50) in the experiment with P. falciparum W2 amounted to 7.9 µM; with P. falciparum C235, 12.9 µM; in the experiment on P. falciparum D6 it was 9.8 µM.
Turning to `Oc1ccc(-c2cncn2CCc2cccc(F)c2)cc1` [HGN-0097], the IC50 was found to be 2.12 µM in the experiment on P. falciparum W2, 5.18 µM with P. falciparum C235 and 10.2 µM in the experiment on P. falciparum D6.
`Oc1ccc(-c2cncn2CCc2ccc(Cl)cc2Cl)cc1` [HGN-0099]: the IC50 in the experiment on P. falciparum W2 amounted to 4.25 µM; with P. falciparum C235, 5.44 µM; in the experiment with P. falciparum D6, 5.36 µM.
Take `Oc1ccc(-c2cncn2CCc2ccc(Cl)c(Cl)c2)cc1` [HGN-0100]: the IC50 in the experiment on P. falciparum W2 is 5.65 µM; in the experiment on P. falciparum C235, 9.37 µM; with P. falciparum D6, 4.28 µM.
As for `Nc1ccn([C@@H]2O[C@H](CNC(=O)Cc3cn4ccsc4n3)[C@@H](O)[C@H]2O)c(=O)n1` [HGN-0102], the IC50 in the experiment on P. falciparum W2, in the experiment with P. falciparum C235 and in the experiment with P. falciparum D6 was over 40 µM in each case.
`Oc1ccc(-c2cncn2Cc2ccccc2F)cc1` [HGN-0106]: the IC50 with P. falciparum W2 came out at 4.1 µM; with P. falciparum C235, 3.52 µM; in the experiment on P. falciparum D6 it was 3 µM.
